Experimental data as given in PubChem BioAssay (NCATS).
Records with an inconclusive call do not appear. Calls come from the whole dose curve; as a rule, active = well fitted cell-killing curve with a large enough effect; inconclusive = small, poorly fitted or top-dose-only effect; inactive = no such curve, though single readings can be large or run the other way. Where a structure was tested more than once in an assay, its records may differ in their call. Not every entry of the source has a single result; some have several. The other results are left out here. The source may hold further records. Values given together are repeats across runs, samples, wells, individuals or studies. A tag in brackets gives the origin of a value. The letters are not those of the source and start again with each entry.

Assay: qHTS of pediatric cancer cell lines to identify multiple opportunities for drug repurposing: Primary screen for SK-N-MC cells (AID 1347093)
Conditions: SK-N-MC viability, CellTiter-Glo luminescence, 48 h; series mostly up to 46 µM
Potency is the fitted concentration of half-maximal effect.

Row | SMILES | Potency
1 | CCOC(=O)[C@H](CCc1ccccc1)N[C@H]1CS[C@H](c2cccs2)CN(CC(=O)O)C1=O | active: 590 nM [sample A] and inactive [sample B]
2 | COc1cc2c(Nc3ccc(Br)cc3F)ncnc2cc1OCC1CCN(C)CC1 | active: 18.7 µM [sample A] and inactive [sample B]
3 | CN(CCOc1ccc(CC2SC(=O)NC2=O)cc1)c1ccccn1 (stereo not given) | inactive [sample A] and active: 23.5 µM [sample B]
4 | CC(C)(Sc1cc(C(C)(C)C)c(O)c(C(C)(C)C)c1)Sc1cc(C(C)(C)C)c(O)c(C(C)(C)C)c1 | inactive [sample A] and active: 2.96 µM [sample B]
5 | Cc1cc(NS(=O)(=O)c2ccc(N)cc2)no1 | inactive [sample A] and active: 5.26 µM [sample B]
6 | O=C(O)c1cccnc1 | inactive [sample A] and active: 20.9 µM [sample B]
7 | CC(C(=O)O)c1ccc2c(c1)CC(=O)c1ccccc1S2 (stereo not given) | active: 33.2 nM [sample A] and inactive [sample B]
8 | Clc1ccccc1CN1CCc2sccc2C1 | active: 33.2 µM [sample A] and inactive [sample B]
9 | O=c1cc(O)c(Cl)c[nH]1 | active: 1.48 µM [sample A] and inactive [sample B]
10 | Cc1cccc(N(C)C(=S)Oc2ccc3ccccc3c2)c1 | inactive [sample A] and active: 8.33 µM [sample B]
